Test results reported in the supplement of paper PMC8813932.
Structures can show the parent of a compound that is named as a salt. ± gives the standard deviation of the averaged measurements. This is one part of the list. Single values are uncertain, as repeats are few or missing.

Columns and labels:
Assay in all cases: log2 surviving fraction relative to plate median (drug vs vehicle, or drug+dl922-947 vs dl922-947 alone); ovarian cancer lines: OVCAR4 is platinum-sensitive while Ov4Cis resists cisplatin and Ov4Carbo carboplatin; higher = more cell survival
Conditions in all cases: compound concentration: 10 uM, 192 h
OVCAR4 = system: OVCAR4
Ov4Carbo = system: Ov4Carbo
Ov4Cis = system: Ov4Cis
[1] = dl922-947 oncolytic adenovirus co-treatment: MOI 10
[2] = dl922-947 oncolytic adenovirus co-treatment: none

Row | SMILES | log2 surviving fraction (OVCAR4; [1]) | log2 surviving fraction (OVCAR4; [2]) | log2 surviving fraction (Ov4Carbo; [1]) | log2 surviving fraction (Ov4Carbo; [2]) | log2 surviving fraction (Ov4Cis; [1]) | log2 surviving fraction (Ov4Cis; [2])
1 | Nc1ncnc2c1ncn2[C@@H]1O[C@H](CO)[C@@H](O)[C@H]1O [Adenosine (Adenocard)] | 0.639 ± 1.3 | 1.44 ± 1.2 | 1.83 | 1.2 | 0.673 | 1.62
2 | Cc1cccc([C@H](C)c2c[nH]cn2)c1C [Dexmedetomidine HCl (Precedex)] | -0.0574 ± 0.057 | 0.258 ± 0.047 | -0.358 | -0.0121 | 0.763 | 0.431
3 | Clc1ccc(C(Cn2ccnc2)OCc2c(Cl)cccc2Cl)c(Cl)c1 (stereo not given) [Isoconazole nitrate (Travogen)] | -1.16 ± 0.17 | -3.01 ± 0.4 | -0.911 | -3.68 | -1.5 | -0.701
4 | OCCOCCN1CCN(C2=Nc3ccccc3Sc3ccccc32)CC1 [Quetiapine fumarate (Seroquel)] | -1.09 ± 0.42 | -1.73 ± 2 | -3.39 | -1.67 | -1.46 | 0.268
5 | CN(C)CCC=C1c2ccccc2CCc2ccccc21 [Amitriptyline HCl] | -2.35 ± 0.56 | -1.3 ± 1.3 | -2.76 | -0.422 | -3.02 | -2.96
6 | COc1cc2nccc(Oc3ccc(NC(=O)C4(C(=O)Nc5ccc(F)cc5)CC4)cc3)c2cc1OC [XL-184 (Cabozantinib)] | -0.393 ± 3.1 | -2.53 ± 3.8 | 0.618 | 1.26 | -3.3 | -4.21
7 | Nc1ccn([C@@H]2CS[C@H](CO)O2)c(=O)n1 [Lamivudine (Epivir)] | -0.182 ± 0.16 | 0.528 ± 0.38 | 0.85 | 0.355 | 0.317 | -0.175
8 | COc1ccc2cccc(CCNC(C)=O)c2c1 [Agomelatine] | 0.649 ± 0.075 | 1.04 ± 0.47 | 1.2 | 1.63 | 1.84 | 0.453
9 | O=C(CCCN1CC=C(n2c(=O)[nH]c3ccccc32)CC1)c1ccc(F)cc1 [Droperidol] | 0.42 ± 0.99 | 0.354 ± 0.81 | 0.777 | -1.32 | -0.0512 | -0.633
10 | CN(C)CCN1C(=O)c2ccccc2N(C)c2ccccc21 [Dibenzepine HCl] | 0.556 ± 0.68 | 0.176 ± 0.14 | 0.0284 | -1.11 | 0.732 | 0.249
11 | NC[C@H](CC(=O)O)c1ccc(Cl)cc1 [(R)-baclofen] | 0.811 ± 0.79 | 0.116 ± 0.64 | 0.461 | 0.813 | -0.564 | 1.28
12 | C[C@@H]1CCC[C@H](C)N1NC(=O)c1ccc(Cl)c(S(N)(=O)=O)c1 [Clopamide] | -0.197 ± 0.18 | -0.0465 ± 0.26 | 0.321 | 1.17 | 0.0851 | -0.239
13 | CS(=O)(=O)c1ccc(C2=C(c3ccccc3)C(=O)OC2)cc1 [Rofecoxib (Vioxx)] | -0.226 ± 0.062 | 1.53 ± 0.26 | -0.138 | 0.268 | -0.00402 | -2.81
14 | C=Cc1c(C)c2cc3nc(cc4[nH]c(cc5nc(cc1[nH]2)C(C)=C5CCC(=O)O)c(CCC(=O)OC)c4C)[C@@]1(C)C3=CC=C(C(=O)OC)[C@H]1C(=O)OC [Verteporfin (Visudyne)] | -0.863 ± 0.73 | -1.33 ± 0.6 | -0.737 | -0.482 | -1.9 | -0.4
15 | NS(=O)(=O)c1cc2c(cc1C(F)(F)F)NC(Cc1ccccc1)NS2(=O)=O (stereo not given) [Bendroflumethiazide] | 1.03 ± 1.2 | 1.38 ± 1.9 | -0.321 | 1.04 | 0.294 | 0.618
16 | Cc1ccc(N(CC2=NCCN2)c2cccc(O)c2)cc1 [Phentolamine mesilate] | 0.588 ± 0.77 | 0.397 ± 0.64 | 0.147 | 0.459 | 0.283 | 0.467
17 | C[C@@H]1O[C@@H](O[C@H]2C[C@@H](O)[C@]3(CO)[C@H]4[C@H](O)C[C@]5(C)[C@@H](C6=CC(=O)OC6)CC[C@]5(O)[C@@H]4CC[C@]3(O)C2)[C@H](O)[C@H](O)[C@H]1O [Ouabain] | -8.01 ± 0.61 | -9.88 ± 6.1 | -6.82 | -9.92 | -7.23 | -13.3
18 | CN1C(C(=O)Nc2ccccn2)=C(O)c2sccc2S1(=O)=O [Tenoxicam (Mobiflex)] | -0.0883 ± 0.46 | -0.0456 ± 0.1 | 1.13 | 0.201 | -0.676 | -0.281
19 | N.N.[Cl][Pt][Cl] [Cisplatin] | 0.413 ± 0.19 | 1.42 ± 0.33 | 0.772 | 2.11 | 1.1 | 1.34
20 | CC(C(=O)O)c1ccc2c(c1)[nH]c1ccc(Cl)cc12 (stereo not given) [Carprofen] | 0.565 ± 0.1 | 0.212 ± 0.68 | 0.312 | -0.506 | -0.925 | 0.742
21 | O=C1CN2Cc3c(ccc(Cl)c3Cl)N=C2N1 [Anagrelide HCl] | -0.299 ± 0.029 | -0.107 ± 0.21 | 0.512 | -0.601 | 0.211 | 0.206
22 | CCCCC[C@H](O)/C=C/[C@H]1[C@H](O)CC(=O)[C@@H]1CCCCCCC(=O)O [Alprostadil (Caverject)] | -0.209 ± 1.5 | -0.84 ± 0.16 | -0.322 | -0.903 | -0.162 | -0.293
23 | CCC[C@@H]1C[C@@H](C(=O)N[C@@H]([C@H]2O[C@H](SC)[C@H](O)[C@@H](O)[C@H]2O)[C@H](C)Cl)N(C)C1 [Clindamycin hydrochloride (Dalacin)] | 0.965 ± 0.4 | 0.264 ± 0.43 | 0.839 | 1.84 | 0.198 | 0.701
24 | CC(C)=CC1C(C(=O)OCc2cccc(Oc3ccccc3)c2)C1(C)C (stereo not given) [Phenothrin] | -0.8443 ± 0.0023 | -0.969 ± 0.76 | -0.949 | -1.17 | 0.0513 | -0.85
25 | CCOC(=O)C(C)(C)Oc1ccc(Cl)cc1 [Clofibrate (Atromid-S)] | 1.08 ± 0.85 | 0.681 ± 0.3 | 0.149 | 0.398 | 0.301 | 0.808
26 | Cc1ccc(O)c([C@H](CCN(C(C)C)C(C)C)c2ccccc2)c1 [Tolterodine tartrate (Detrol LA)] | -0.682 ± 0.19 | -0.638 ± 0.23 | 0.416 | -1.32 | -0.651 | -0.439
27 | CCOC(=O)O[C@]1(C(=O)OCCl)CC[C@H]2[C@@H]3CCC4=CC(=O)C=C[C@]4(C)[C@H]3[C@@H](O)C[C@@]21C [Loteprednol etabonate] | 1.66 ± 1.3 | -0.824 ± 1.9 | 1.27 | -0.345 | 1.27 | -2.57
28 | COc1ccc(-c2nc3cc(C4=NNC(=O)CC4C)ccc3[nH]2)cc1 (stereo not given) [Pimobendan (Vetmedin)] | -2.62 ± 0.1 | -3.1 ± 0.084 | -2.05 | -5.1 | -2.54 | -4.14
29 | O=C1CC[C@@H](C(=O)N2CSC[C@H]2C(=O)O)N1 [Pidotimod] | 1.1 ± 0.26 | -0.0587 ± 0.6 | -0.199 | 0.669 | 0.69 | 0.196
30 | Cc1cc(-n2c(=O)[nH]c(=O)n(C)c2=O)ccc1Oc1ccc(SC(F)(F)F)cc1 [toltrazuril] | 0.796 ± 0.086 | 0.742 ± 1.1 | 0.605 | 0.187 | 1.18 | 0.528
